This is an account of results in the supplement of paper PMC9927326.

MIC of clinical C. albicans isolates, CLSI broth microdilution (ranges and time not stated); higher = less susceptible. Call: susceptible or wild type [S] / resistant or non-wild type [R] by CLSI breakpoints or epidemiological cut-offs; intermediate and dose-dependent carry no call here (the paper groups them with resistant). '<=' and '>=' mark each drug's lowest and highest value, inferred; the source prints them plain. Isolates are numbered anew. A value given as a limit tells only on which side of the number the result lay.

Experiment in all cases: CLSI broth microdilution.
Compound in one assay: CCC(C)n1ncn(-c2ccc(N3CCN(c4ccc(OCC5COC(Cn6cncn6)(c6ccc(Cl)cc6Cl)O5)cc4)CC3)cc2)c1=O [itraconazole]
Compound in another assay: CCCCCOc1ccc(-c2cc(-c3ccc(C(=O)N[C@H]4C[C@@H](O)[C@@H](O)NC(=O)[C@@H]5[C@@H](O)[C@@H](C)CN5C(=O)[C@H]([C@H](O)CC(N)=O)NC(=O)[C@H]([C@H](O)[C@@H](O)c5ccc(O)c(OS(=O)(=O)O)c5)NC(=O)[C@@H]5C[C@@H](O)CN5C(=O)[C@H]([C@@H](C)O)NC4=O)cc3)no2)cc1 [micafungin]
Compound in a further assay: CCCCCOc1ccc(-c2ccc(-c3ccc(C(=O)N[C@H]4C[C@@H](O)[C@@H](O)NC(=O)[C@@H]5[C@@H](O)[C@@H](C)CN5C(=O)[C@H]([C@@H](C)O)NC(=O)[C@H]([C@H](O)[C@@H](O)c5ccc(O)cc5)NC(=O)[C@@H]5C[C@@H](O)CN5C(=O)[C@H]([C@@H](C)O)NC4=O)cc3)cc2)cc1 [anidulafungin]
Compound in another assay: CC[C@@H]([C@H](C)O)n1ncn(-c2ccc(N3CCN(c4ccc(OC[C@@H]5CO[C@@](Cn6cncn6)(c6ccc(F)cc6F)C5)cc4)CC3)cc2)c1=O [posaconazole]
Compound in a further assay: CC[C@H](C)C[C@H](C)CCCCCCCCC(=O)N[C@H]1C[C@@H](O)[C@@H](NCCN)NC(=O)[C@@H]2[C@@H](O)CCN2C(=O)[C@H]([C@H](O)CCN)NC(=O)[C@H]([C@H](O)[C@@H](O)c2ccc(O)cc2)NC(=O)[C@@H]2C[C@@H](O)CN2C(=O)[C@H]([C@@H](C)O)NC1=O [caspofungin]
Compound in another assay: C[C@@H](c1ncncc1F)[C@](O)(Cn1cncn1)c1ccc(F)cc1F [voriconazole]
Compound in the next assay: C[C@@H]1[C@H](O)[C@@H](C)/C=C/C=C/C=C/C=C/C=C/C=C/C=C/[C@H](O[C@@H]2O[C@H](C)[C@@H](O)[C@H](N)[C@@H]2O)C[C@@H]2O[C@](O)(C[C@@H](O)C[C@@H](O)[C@H](O)CC[C@@H](O)C[C@@H](O)CC(=O)O[C@H]1C)C[C@H](O)[C@H]2C(=O)O [amphotericin B]
Compound in the next assay: Nc1[nH]c(=O)ncc1F [flucytosine]
Compound in the next assay: OC(Cn1cncn1)(Cn1cncn1)c1ccc(F)cc1F [fluconazole]

Usually MIC stands for the lowest concentration that inhibits growth of the organism. For “Candida albicans isolate 200 (Erg11p: V437I,E266D, Fur1p: WT, Tac1p: C908Y,N896S)”, the MIC with itraconazole was 0.03 mg/L [S]; with micafungin, 0.015 mg/L [S]; with anidulafungin it was at most 0.015 mg/L [S]; with posaconazole, 0.015 mg/L [S]; with caspofungin, 0.03 mg/L [S]; with voriconazole, at most 0.008 mg/L [S]. In addition, the values for the MIC with amphotericin B, in the assay with flucytosine and in the assay with fluconazole were 0.5 mg/L [S], at most 0.06 mg/L [S] and 0.25 mg/L [S], respectively.
Regarding “Candida albicans isolate 201 (Erg11p: V488I,E266D, Fur1p: WT, Tac1p: N896S,A377V,F189S,N174D,M170I,K87N)”, the MIC with itraconazole is 0.06 mg/L [S]; with micafungin it was at most 0.008 mg/L [S]; with anidulafungin, 0.06 mg/L [S]; with posaconazole, 0.03 mg/L [S]; in the assay with caspofungin, 0.06 mg/L [S]; with voriconazole it was at most 0.008 mg/L [S]. For the same test system, the minimal inhibitory concentration (MIC) with amphotericin B was 0.5 mg/L [S]; with flucytosine, at most 0.06 mg/L [S]; with fluconazole, 0.5 mg/L [S].
Take “Candida albicans isolate 202 (Erg11p: E266D, Fur1p: WT, Tac1p: I558V,A377V,F189S,N174D,M170I,K87N)”: the MIC is at most 0.015 mg/L [S] with itraconazole; 0.015 mg/L [S] in the assay with micafungin; at most 0.015 mg/L [S] with anidulafungin; at most 0.008 mg/L [S] in the assay with posaconazole; 0.015 mg/L [S] in the assay with caspofungin; at most 0.008 mg/L [S] with voriconazole. Further, the MIC with amphotericin B was 0.25 mg/L [S]; with flucytosine it was at most 0.06 mg/L [S]; with fluconazole, 0.25 mg/L [S].
“Candida albicans isolate 203 (Erg11p: WT, Fur1p: WT, Tac1p: I558V,A377V,F189S,N174D,M170I,K87N)”: the MIC is at most 0.015 mg/L [S] with itraconazole; 0.015 mg/L [S] with micafungin; at most 0.015 mg/L [S] with anidulafungin; 0.015 mg/L [S] with posaconazole; 0.03 mg/L [S] with caspofungin; at most 0.008 mg/L [S] with voriconazole. Moreover, the values for the MIC with amphotericin B, with flucytosine and with fluconazole were 0.5 mg/L [S], at most 0.06 mg/L [S] and 0.25 mg/L [S], respectively.
As to “Candida albicans isolate 204 (Erg11p: V488I,E266D, Fur1p: WT, Tac1p: N896S)”, the MIC in the assay with itraconazole is at most 0.015 mg/L [S]; in the assay with micafungin it was 0.015 mg/L [S]; in the assay with anidulafungin it was at most 0.015 mg/L [S]; in the assay with posaconazole, 0.015 mg/L [S]; with caspofungin it was 0.03 mg/L [S]; with voriconazole, at most 0.008 mg/L [S]. Also, the MIC is 0.5 mg/L [S] with amphotericin B, at most 0.06 mg/L [S] with flucytosine and 0.25 mg/L [S] with fluconazole.
In the case of “Candida albicans isolate 205 (Erg11p: K342R,E266D, Fur1p: WT, Tac1p: I558V,A377V,F189S,N174D,M170I,K87N)”, the MIC with itraconazole was at most 0.015 mg/L [S]; with micafungin, at most 0.008 mg/L [S]; with anidulafungin, at most 0.015 mg/L [S]; with posaconazole, 0.015 mg/L [S]; with caspofungin, 0.03 mg/L [S]; in the assay with voriconazole, at most 0.008 mg/L [S]. The MIC with amphotericin B is 0.25 mg/L [S]; in the assay with flucytosine, at most 0.06 mg/L [S]; in the assay with fluconazole, 0.5 mg/L [S].
On to “Candida albicans isolate 206 (Erg11p: E266D,G129A, Fur1p: WT, Tac1p: R869Q,L695F,I558V,A377V,F189S,M170V,L131I)”, for which the MIC with itraconazole turned out to be 0.06 mg/L [S]; with micafungin, 0.015 mg/L [S]; in the assay with anidulafungin, 0.03 mg/L [S]; with posaconazole it was 0.03 mg/L [S]; in the assay with caspofungin, 0.06 mg/L [S]; with voriconazole, 0.015 mg/L [S]. Besides, the MIC with amphotericin B was 0.5 mg/L [S]; with flucytosine it was at most 0.06 mg/L [S]; in the assay with fluconazole, 0.5 mg/L [S].
As for “Candida albicans isolate 207 (Erg11p: V488I,E266D, Fur1p: WT, Tac1p: I558V,A377V,F189S,N174D,M170I,K87N)”, the MIC with itraconazole was at most 0.015 mg/L [S]; with micafungin it was at most 0.008 mg/L [S]; with anidulafungin it was 0.03 mg/L [S]; in the assay with posaconazole, 0.015 mg/L [S]; with caspofungin, 0.03 mg/L [S]; with voriconazole it was at most 0.008 mg/L [S]. Besides, the values for the MIC with amphotericin B, in the assay with flucytosine and with fluconazole were 0.5 mg/L [S], at most 0.06 mg/L [S] and 0.25 mg/L [S], respectively.
As for “Candida albicans isolate 208 (Erg11p: V488I,E266D, Fur1p: WT, Tac1p: N896S)”, the MIC is at most 0.015 mg/L [S] in the assay with itraconazole; at most 0.008 mg/L [S] in the assay with micafungin; at most 0.015 mg/L [S] in the assay with anidulafungin; 0.015 mg/L [S] with posaconazole; 0.015 mg/L [S] with caspofungin; at most 0.008 mg/L [S] in the assay with voriconazole. For the same test system, the results for the MIC with amphotericin B, in the assay with flucytosine and with fluconazole were 0.25 mg/L [S], at most 0.06 mg/L [S] and 0.25 mg/L [S], respectively.
Take “Candida albicans isolate 209 (Erg11p: WT, Fur1p: WT, Tac1p: I558V,A377V,F189S,N174D,M170I,K87N)”: the MIC was at most 0.015 mg/L [S] with itraconazole; at most 0.008 mg/L [S] with micafungin; 0.06 mg/L [S] with anidulafungin; 0.015 mg/L [S] with posaconazole; 0.03 mg/L [S] with caspofungin; at most 0.008 mg/L [S] with voriconazole. For the same test system, the values for the MIC in the assay with amphotericin B, with flucytosine and in the assay with fluconazole were 0.5 mg/L [S], at most 0.06 mg/L [S] and 0.25 mg/L [S], respectively.
For “Candida albicans isolate 210 (Erg11p: E266D, Fur1p: WT, Tac1p: C908Y)”, the MIC with itraconazole is 0.06 mg/L [S]; with micafungin, 0.015 mg/L [S]; with anidulafungin it was at most 0.015 mg/L [S]; with posaconazole, 0.06 mg/L [S]; with caspofungin it was 0.06 mg/L [S]; with voriconazole, 0.015 mg/L [S]. Further, the values for the MIC with amphotericin B, with flucytosine and with fluconazole were 0.5 mg/L [S], at most 0.06 mg/L [S] and 2 mg/L [S], respectively.
In the case of “Candida albicans isolate 211 (Erg11p: V488I,E266D, Fur1p: WT, Tac1p: N896S,I895T)”, the MIC with itraconazole is 0.03 mg/L [S]; in the assay with micafungin, at most 0.008 mg/L [S]; in the assay with anidulafungin, 0.06 mg/L [S]; in the assay with posaconazole, 0.015 mg/L [S]; in the assay with caspofungin, 0.03 mg/L [S]; with voriconazole, at most 0.008 mg/L [S]. The MIC with amphotericin B is 0.25 mg/L [S]; in the assay with flucytosine, at most 0.06 mg/L [S]; in the assay with fluconazole, 0.5 mg/L [S].
Turning to “Candida albicans isolate 212 (Erg11p: WT, Fur1p: R101C, Tac1p: WT)”, the MIC was at least 16 mg/L [R] in the assay with itraconazole; 0.015 mg/L [S] in the assay with micafungin; 0.06 mg/L [S] in the assay with anidulafungin; at least 8 mg/L [R] with posaconazole; 0.06 mg/L [S] with caspofungin; at least 8 mg/L [R] with voriconazole. In addition, the minimal inhibitory concentration (MIC) with amphotericin B was 0.5 mg/L [S]; with flucytosine, 0.5 mg/L [S]; with fluconazole, at least 256 mg/L [R].
As to “Candida albicans isolate 213 (Erg11p: WT, Fur1p: WT, Tac1p: N896S,I558V,A377V,F189S,N174D,M170I,K87N)”, the MIC with itraconazole is 0.06 mg/L [S]; with micafungin, 0.015 mg/L [S]; with anidulafungin, 0.03 mg/L [S]; in the assay with posaconazole it was 0.03 mg/L [S]; with caspofungin, 0.03 mg/L [S]; in the assay with voriconazole, at most 0.008 mg/L [S]. The MIC is 0.25 mg/L [S] with amphotericin B, at most 0.06 mg/L [S] with flucytosine and 0.5 mg/L [S] with fluconazole.
For “Candida albicans isolate 214 (Erg11p: E266D,G129A, Fur1p: WT, Tac1p: R869Q,L695F,I558V,A377V,F189S,M170V,L131I)”, the MIC was 0.06 mg/L [S] with itraconazole; at most 0.008 mg/L [S] with micafungin; at most 0.015 mg/L [S] with anidulafungin; 0.03 mg/L [S] with posaconazole; 0.03 mg/L [S] in the assay with caspofungin; 0.015 mg/L [S] in the assay with voriconazole. Also, the MIC with amphotericin B was 0.5 mg/L [S]; with flucytosine it was at most 0.06 mg/L [S]; in the assay with fluconazole, 2 mg/L [S].
For “Candida albicans isolate 215 (Erg11p: WT, Fur1p: WT, Tac1p: I558V,A377V,F189S,N174D,M170I,K87N)”, the MIC with itraconazole was at most 0.015 mg/L [S]; with micafungin, 0.015 mg/L [S]; with anidulafungin, at most 0.015 mg/L [S]; with posaconazole, 0.015 mg/L [S]; in the assay with caspofungin, 0.03 mg/L [S]; in the assay with voriconazole it was at most 0.008 mg/L [S]. For the same test system, the MIC is 0.5 mg/L [S] in the assay with amphotericin B, at most 0.06 mg/L [S] with flucytosine and 0.25 mg/L [S] in the assay with fluconazole.
